Screen size: about 310,000 compounds; about 2,200 (0.71%) showed an effect of 50% or more. Effects have a minus sign here. The list shows a part of the results.
target: human ether-à-go-go-related gene (hERG) potassium channel (human, UniProt Q12809); experiment: primary screen, population patch clamp on CHO cells stably expressing hERG
Sequence (Q12809 whole entry, looked up): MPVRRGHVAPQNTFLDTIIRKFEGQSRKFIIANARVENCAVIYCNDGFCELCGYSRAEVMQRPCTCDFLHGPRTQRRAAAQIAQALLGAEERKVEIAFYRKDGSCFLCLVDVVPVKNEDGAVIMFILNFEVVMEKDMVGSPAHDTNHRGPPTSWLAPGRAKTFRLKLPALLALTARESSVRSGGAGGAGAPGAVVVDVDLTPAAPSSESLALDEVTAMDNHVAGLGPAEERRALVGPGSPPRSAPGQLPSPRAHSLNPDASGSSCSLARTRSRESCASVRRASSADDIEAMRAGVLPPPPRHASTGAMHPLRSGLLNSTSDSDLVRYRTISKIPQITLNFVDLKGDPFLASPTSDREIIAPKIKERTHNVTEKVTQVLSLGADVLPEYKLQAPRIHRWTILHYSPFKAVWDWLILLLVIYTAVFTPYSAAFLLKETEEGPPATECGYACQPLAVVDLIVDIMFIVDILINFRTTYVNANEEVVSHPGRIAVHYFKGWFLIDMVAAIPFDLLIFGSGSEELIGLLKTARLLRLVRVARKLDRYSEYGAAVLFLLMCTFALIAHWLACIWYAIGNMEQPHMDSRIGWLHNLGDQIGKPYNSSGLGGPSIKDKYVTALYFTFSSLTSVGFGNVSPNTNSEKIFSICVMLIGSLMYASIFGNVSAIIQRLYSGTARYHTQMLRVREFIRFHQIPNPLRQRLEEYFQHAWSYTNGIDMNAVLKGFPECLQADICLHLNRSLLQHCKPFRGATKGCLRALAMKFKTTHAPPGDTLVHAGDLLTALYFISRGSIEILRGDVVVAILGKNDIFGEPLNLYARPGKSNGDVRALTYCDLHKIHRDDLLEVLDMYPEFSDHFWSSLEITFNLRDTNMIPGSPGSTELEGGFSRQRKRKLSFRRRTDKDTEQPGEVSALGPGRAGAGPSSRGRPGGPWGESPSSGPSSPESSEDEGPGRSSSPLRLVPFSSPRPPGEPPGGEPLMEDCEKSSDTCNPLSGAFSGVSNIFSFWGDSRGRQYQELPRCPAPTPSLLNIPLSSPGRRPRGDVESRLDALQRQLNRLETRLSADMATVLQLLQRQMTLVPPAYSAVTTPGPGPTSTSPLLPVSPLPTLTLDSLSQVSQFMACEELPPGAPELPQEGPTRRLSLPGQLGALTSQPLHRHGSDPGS

Compound	hERG current change (%, negative = inhibition) at 1uM [%]
CCC(C)c1ccccc1NC(=O)COC(=O)c1ccc(N2CCCC2)c([N+](=O)[O-])c1 (stereo not drawn)	11.1
Cc1ccc(S(=O)(=O)N2CCOCC2)cc1NC(=O)c1cccc(S(=O)(=O)N2CCCC2)c1	14.5
O=C(NC1CCCC1)C(c1ccncc1)N(Cc1ccccc1)C(=O)Cc1cccs1 (stereo not drawn)	0.145
Cc1nn(-c2ccccc2)c(Cl)c1C(=O)OCC(=O)NCCc1ccccc1	2.73
CC(C)CN(C(=O)COc1ccc(Br)cc1C=O)C1CCS(=O)(=O)C1 (stereo not drawn)	5.44
COc1ccc(OC)c(NC(=O)C2CCN(S(=O)(=O)c3ccc4c(c3)OCCO4)CC2)c1	4.48
Cc1cccc(NC(=O)CCCN2C(=O)c3cccc4cccc(c34)C2=O)c1	5.28
COCCn1nnnc1CN(CCc1ccccc1)Cc1cc2cc(OC)ccc2[nH]c1=O	-17.6
CCOC(=O)Cc1nnc(NC(=O)C(CC)Sc2nncn2C)s1 (stereo not drawn)	11.5
CCN(CC(=O)Nc1ccc2c(c1)OCCO2)C(=O)CC(NC(C)=O)c1ccccc1 (stereo not drawn)	16.6
CC1=CC(C)C2COC(c3ccc[n+](C)c3)C1C2C.[I-] (stereo not drawn)	13.2
O=C(c1cccs1)[C@@H]1[C@@H]2C(=O)N(Cc3ccc4c(c3)OCO4)C(=O)[C@@H]2C2c3ccccc3C=CN21 (stereo partly drawn)	-12
O=c1oc2ccccc2c2[nH]ccc12	14.5
COCCCNC(=O)CN(c1cc(Cl)cc(Cl)c1)S(C)(=O)=O	8.12
COc1ccccc1NC(=O)c1cc2ccccc2o/c1=N\O	3.06
CS(=O)(=O)c1ccc(Cl)c(NC(=O)CCNC(=O)c2ccco2)c1	-6.6
COc1ccc(C(=O)N(C)C2CCN(C)CC2)cc1S(=O)(=O)Nc1cc(Cl)ccc1Cl	3.04
CC/C(=N\NC(=O)Cc1ccc(Br)cc1)c1cccs1	12.5
CC1=CC(C)C(COC(N)=O)(COC(N)=O)C(C)C1 (stereo not drawn)	-8.66
O=C(N/N=C/c1c(Cl)cccc1Cl)c1ccccc1F	7.76
O=C(O)c1cc(-c2cccc([N+](=O)[O-])c2)n[nH]1	7.75
CC1=C(C(=O)N2CCOCC2)C(c2cc(C)ccc2C)NC(=S)N1 (stereo not drawn)	13

Compound	hERG current change (%, negative = inhibition) at 1uM [%]
COc1ccc(C2N3CC4(C)CN2CC(C)(C3)C4O)cc1 (stereo not drawn)	6.46
Cc1cc(C)cc(NC(=O)C2CCCN(c3nc(C)cc(C)n3)C2)c1 (stereo not drawn)	7.41
CS(=O)(=O)Cc1ccc(C(=O)NC2CCN(Cc3ccccc3)C2)cc1 (stereo not drawn)	13
O=C(Nc1ccc2c(c1)OCO2)C1CC(c2ccc(F)cc2)=NO1 (stereo not drawn)	13.3
CCOC(=O)C1(O)CC(C)=NN1C(=O)c1cccc(Br)c1 (stereo not drawn)	14.2
O=C1/C(=C\Nc2ccc(OC(F)(F)F)cc2)CCN1c1ncccn1	0.643
CCN(CC(=O)NCc1ccc2c(c1)OCO2)S(=O)(=O)c1ccc(F)cc1	10.6
Cc1cccc(NC(=O)c2ccc(-c3ccccc3[N+](=O)[O-])o2)c1	0.181
CS(=O)(=O)ON=C1CCN(S(=O)(=O)c2ccccc2)CC1	15.2
COc1ccc(CNC(=O)C(OC(=O)c2ccco2)c2ccc(OC)cc2)cc1 (stereo not drawn)	5.97
Cc1cccc(N=C2NC(=O)/C(=C3/C(=O)N(C)c4ccccc43)S2)c1C	3.5
COCCNC(=O)C(c1ccc(F)cc1)N(C(=O)CCC(=O)Nc1nccs1)c1cccc(C)c1 (stereo not drawn)	11.1
Cc1ccccc1NC(=S)NC(C)CCc1ccccc1 (stereo not drawn)	11.9
CC(C)(C)C(=O)C(Cl)C(=O)Nc1ccccc1 (stereo not drawn)	11.2
O=C(COC(=O)CNS(=O)(=O)c1c(F)cccc1F)NC(=O)NC1CCCCC1	-4.45
COc1ccc(CNc2cc(NCCCO)c([N+](=O)[O-])c3nonc23)cc1	12.2
Cc1cccc(C)c1NC(=O)[C@@]1(CC(=O)O)CC(/C=C/c2ccccc2)=NO1	10.7
CCOc1ccc(/C=N/NC(=O)Nc2ccccc2)cc1	12
COc1cc2c3c(c1)/C(=C1/SC(=S)NC1=O)C(=O)N3C(C)(C)C=C2C	4.66
Cc1ccc(C)c2nc(Cl)c(C3NC(=O)c4ccccc4N3)cc12 (stereo not drawn)	1.73
CC(C(=O)N1CCN(C=O)CC1)N1C(=O)c2ccccc2C1=O (stereo not drawn)	8.38
COc1cccc(NC(=O)CSc2nc(C)cs2)c1	7.37

Compound	hERG current change (%, negative = inhibition) at 1uM [%]
CCc1nc(SCC(=O)Nc2cc(C)ccc2OC)c2c(C)c(C)sc2n1	12.7
COc1ccc(NS(=O)(=O)c2cc(NC(=O)CC(=O)c3ccc([N+](=O)[O-])cc3)ccc2C)cc1	3.67
COCCn1cnc2c1c(=O)n(CC(=O)NC(=O)NC(C)(C)C)c(=O)n2Cc1ccccc1	11.3
O=C(Cn1cnc(S(=O)(=O)N2CCCC2)c1)Nc1cccc(F)c1	14.4
CNC(=O)COC(=O)c1cc2c(s1)CCCC2	15.8
CSc1nc(=O)n(-c2ccccc2)c(C)c1C(C)=O	14.8
O=C(CCCN1C(=O)/C(=C/c2cccs2)SC1=S)NNC(=O)c1ccccc1O	6.7
O.O=C(NCc1nc2ccccc2[nH]1)c1ccc(Cl)c(S(=O)(=O)N2CCCC2)c1	9.93
S=C(NCCc1ccccc1)N1CCOCC1	12.3
CCN1CCN(C(c2cccs2)C(C)NC(=O)CC(C)C)CC1 (stereo not drawn)	-9.05
O=C(CSc1nnc(-c2ccccc2Cl)o1)N1CCCC1	4.3
Cc1ccccc1NC(=O)C1CCN(c2cc(-c3ccccc3)nc3ncnn23)CC1	5.72
CCOc1ccc(N2C(=O)/C(=C\c3ccc(OC)c(O)c3)S(=O)(=O)C2c2cccc([N+](=O)[O-])c2)cc1 (stereo not drawn)	7.83
Cc1ccc(CN2CCNC(=O)C2CC(=O)O)o1 (stereo not drawn)	11
CCCCSCc1cc(C(=O)O)oc1C(C)(C)C	-0.127
CCN(CC)C(NC(=O)c1ccccc1)C(=O)c1ccccc1 (stereo not drawn)	-2.1
O=C(CN1CCN(Cc2cccc(Cl)c2)C1=O)NCc1ccccn1	6.19
Cc1c(CCOC(=O)CC23CC4CC(CC(C4)C2)C3)sc[n+]1Cc1ccccc1.[Cl-]	-12.4
Br.Cc1ccc(-c2csc3nc(=O)c(C)nn23)cc1	3.75
CCOc1ccc(CN2CCN(Cc3cn(CC)nc3C)CC2CCO)cc1 (stereo not drawn)	-6.11
COC(=O)c1ccc(N2CN=C(c3ccc(C)cc3)NC2=S)cc1	17.6
CCOc1ccc2[nH]c3c(NCCN(C)C)ncnc3c2c1	14.4

Compound	hERG current change (%, negative = inhibition) at 1uM [%]
C[C@@H]1CC[C@H]2[C@@H](C)C(=O)O[C@@H]3O[C@@]4(C)CC[C@@H]1[C@]32OO4	7.37
COC(=O)C(C#N)c1nc2ccccc2nc1N1CCN(Cc2ccc3c(c2)OCO3)CC1 (stereo not drawn)	7.71
COc1ccc(OC)c2[nH]c(=O)c(CCNC(=O)CC(C)C)cc12	7.35
Cc1cnc(NC(=O)COc2ccccc2)s1	10.8
Cc1cc(C)n(-c2ccc(C(=O)N3CCC(CO)(Cc4ccccc4)CC3)cc2)n1	11.7
COc1cccc(N2C(=O)CN(Cc3ccc(OC)c(OC)c3)C2=S)c1	17.2
Cc1ccc(C)c(S(=O)(=O)N2CCN(CC(=O)Nc3ccc([N+](=O)[O-])cc3)CC2)c1	4.71
CCC(CC)C(=O)Nc1nnc(S(=O)(=O)Nc2ccc(OC)cc2)s1	11.3
CC(=O)c1cnc(N2CCCCC2)nc1C	3.99
CC(C)Sc1cc(N2CCOCC2)nc(-c2ccccc2)n1	0.991
CN1CCN(C(=O)/C(=C\c2cccs2)NC(=O)c2cccs2)CC1	-77.3
COc1ccc(OC)c(NC(=S)NC(=O)c2ccc(Br)o2)c1	12.6
CCCCn1c(N)c(N(CCOC)C(=O)c2ccc(N3CCCC3=O)cc2)c(=O)[nH]c1=O	3.72
COc1ccc(CN2C(=NC(=O)COc3ccccc3)SC3CS(=O)(=O)CC32)cc1 (stereo not drawn)	-4.32
COc1cc(NC(=O)Cn2cnc3c(nc4n3CCCCC4)c2=O)cc(OC)c1OC	20.8
CSc1nnc(CNC(=O)C23CC4CC(CC(C4)C2)C3)n1Cc1ccccc1	14.5
Cn1c(N)c(C(=O)CSc2nnnn2-c2ccccc2)c(=O)n(C)c1=O	16
Cc1ccc(S(=O)(=O)n2nc(OC(=O)c3ccccc3F)cc2N)cc1	12.6
COc1ccc(OC)c2[nH]c(=O)c(CCNC(=O)c3ccc(S(=O)(=O)N(C)C)cc3)cc12	11.8
Cc1cccc(/C=N/NC(=O)C(C)Nc2cccc3ccccc23)n1 (stereo not drawn)	7.13
COc1ccc(CNC(=O)CSc2ncnc3nc[nH]c23)cc1	-16.6
